# Experimental data taken from publication PMC4336329 (PLoS ONE, 2015).
# Hit rate of the full screen: of about 310,000 compounds, about 2,200 (0.71%) showed an effect of 50% or more. The effect is printed as a negative number. The list shows a part of the results.
# Biological target: human ether-à-go-go-related gene (hERG) potassium channel (human, UniProt Q12809)
# Test: primary screen, population patch clamp on CHO cells stably expressing hERG
# Sequence of human ether-à-go-go-related gene (hERG) potassium channel (Q12809 whole entry, looked up): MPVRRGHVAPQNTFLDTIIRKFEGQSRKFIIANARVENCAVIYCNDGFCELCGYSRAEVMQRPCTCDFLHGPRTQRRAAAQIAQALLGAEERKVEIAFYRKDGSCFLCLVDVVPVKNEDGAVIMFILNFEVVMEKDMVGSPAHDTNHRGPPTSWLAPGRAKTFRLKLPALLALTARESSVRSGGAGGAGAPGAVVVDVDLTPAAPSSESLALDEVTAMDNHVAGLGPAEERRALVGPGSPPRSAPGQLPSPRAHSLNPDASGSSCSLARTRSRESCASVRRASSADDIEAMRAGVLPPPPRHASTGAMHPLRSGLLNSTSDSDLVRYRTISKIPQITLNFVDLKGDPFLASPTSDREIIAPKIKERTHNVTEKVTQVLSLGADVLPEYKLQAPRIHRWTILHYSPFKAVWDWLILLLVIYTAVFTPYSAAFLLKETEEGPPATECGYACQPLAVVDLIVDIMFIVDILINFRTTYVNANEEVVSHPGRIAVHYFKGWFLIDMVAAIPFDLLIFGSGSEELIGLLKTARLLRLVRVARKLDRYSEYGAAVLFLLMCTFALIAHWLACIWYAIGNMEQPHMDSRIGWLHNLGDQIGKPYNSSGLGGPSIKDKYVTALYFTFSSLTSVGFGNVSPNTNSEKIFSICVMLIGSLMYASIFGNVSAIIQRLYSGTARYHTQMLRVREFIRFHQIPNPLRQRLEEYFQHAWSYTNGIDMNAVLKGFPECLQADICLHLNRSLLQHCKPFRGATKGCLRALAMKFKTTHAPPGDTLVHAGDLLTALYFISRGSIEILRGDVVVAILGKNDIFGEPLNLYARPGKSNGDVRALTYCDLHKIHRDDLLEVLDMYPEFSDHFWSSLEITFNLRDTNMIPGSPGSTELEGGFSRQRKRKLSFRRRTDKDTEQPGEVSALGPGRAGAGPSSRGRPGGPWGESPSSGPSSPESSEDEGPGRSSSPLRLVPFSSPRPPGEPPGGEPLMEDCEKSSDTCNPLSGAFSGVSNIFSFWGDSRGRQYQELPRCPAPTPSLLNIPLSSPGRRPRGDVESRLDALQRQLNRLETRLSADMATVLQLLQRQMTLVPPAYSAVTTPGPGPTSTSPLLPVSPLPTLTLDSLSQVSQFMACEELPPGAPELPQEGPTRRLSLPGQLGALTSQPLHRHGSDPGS
row,SMILES,"hERG current change (%, negative = inhibition) at 1uM [%]"
1,O=C([C@@H]1CCCN1C(=O)c1cccs1)N1CCN(S(=O)(=O)c2ccccc2F)CC1,-3.57
2,CCN1CCc2c(OCC(=O)N3CCCCC3)cccc2C1=O,6.82
3,COc1ccc(C(=O)Nc2ccc(NC(=O)c3ccco3)cc2)cc1,16.5
4,CCOC(=O)C1=C(c2ccccc2)NC(=O)NC1c1cc(Cl)c(O)c(OC)c1 (centres unmarked),8.1
5,COC(=O)c1sc(NC(=O)COc2ccc(OC)cc2)nc1C,12.5
6,COc1ccc(CC(=O)NCc2ccco2)cc1OC,12.7
7,COc1cc(-c2c(-c3ccsc3)sc3ccccc23)cc(OC)c1OC,15.5
8,CC1CCN(C(=O)c2ccccc2SCC(=O)NCC2CCCCC2)CC1,-5.24
9,O=C(COc1ccc(Cl)cc1Br)Nc1cccc(S(=O)(=O)N2CCCC2)c1,10.3
10,CN1CCN(/N=C/c2cccc(Cl)c2Cl)CC1.Cl,11.9
11,Cc1cc(C)c2nc(C)cc(N/N=C/c3ccc(O)cc3)c2c1,-6.55
12,c1ccc(NC2=Nc3ccccc3CC2)cc1,6.29
13,COc1cc2c(cc1OC)C(c1ccc([N+](=O)[O-])cc1)NC(=O)C2 (centres unmarked),6.17
14,Cc1nc(-c2ccc(S(=O)(=O)N3CCCN(CCc4ccccc4)CC3)s2)cs1,10.6
15,COc1cccc(-n2c(O)c(C=Nc3c(C)n(C)n(-c4ccccc4)c3=O)c(=O)[nH]c2=O)c1,21.1
16,CC(OC(=O)c1ccc(-n2cnnn2)cc1)C(=O)Nc1ccc(F)c(F)c1F (centres unmarked),9.74
17,O=C(C1CCN(S(=O)(=O)N2CCC3(CC2)OCCO3)CC1)N1CCC(Cc2ccccc2)CC1,-0.692
18,CCOC(=O)C1CCN(C(=O)c2[nH]c3ccc(OC)cc3c2C)CC1,12.3
19,O=S(=O)(c1ccccc1F)N1CCC(Oc2ccc(-n3cnnn3)cc2)CC1,-23.4
20,O=C(Oc1ccc(-c2ccccc2)cc1)N1CCOCC1,12
21,COc1ccc(OC)c(CCNC(=O)CS(=O)(=O)Cc2nc(-c3ccccc3C)oc2C)c1,3.09
22,O=C(CC1C(=O)NCCN1Cc1ccc(-c2ccccc2)cc1)NCCOc1cccnc1 (centres unmarked),9.6
23,CN1CCN(C(=S)Nc2cccc(S(=O)(=O)N(C)C)c2)CC1,17.8

row,SMILES,"hERG current change (%, negative = inhibition) at 1uM [%]"
1,CN(C)C(=O)N1CCC(C(=O)NCc2ccccc2)CC1,13.5
2,COc1ccc(-n2ccnc(SCC(=O)NC3CCCC3)c2=O)cc1OC,13.6
3,Cc1ccccc1C(=O)NC(=S)Nc1ccccc1N1CCCC1,10.6
4,Cc1occc1-c1nnc(SCC(=O)Nc2nc3ccccc3s2)o1,9.64
5,CCn1cnc2c(NCCc3cccnc3)nc(C#N)nc21,26.8
6,COC(C(=O)Nc1ccnn1C1CCN(Cc2cccc(C)n2)CC1)c1ccccc1 (centres unmarked),16.4
7,O=C(CSc1nccn1-c1ccccc1)N1CCc2ccccc21,-4.29
8,COc1ccc(-c2cc(=O)oc3cc(OC(C)C(=O)NC(Cc4c[nH]c5ccc(O)cc45)C(=O)O)ccc23)cc1 (centres unmarked),-0.486
9,O=C(NCCCN1CCCC1=O)C1CCN(S(=O)(=O)c2ccc(Cl)cc2)CC1,11.5
10,Cc1ccc(NC(=O)C(=O)NCCN2CCN(S(C)(=O)=O)CC2)cc1C,11.5
11,O=C(Nc1ccc(CN2CCCCC2)cc1)c1cccc(F)c1,-6.1
12,CCc1ccc[n+](-c2nc3ccccc3nc2C(=C=[N-])C#N)c1,10.3
13,O=C(NCCNc1ccnc2cc(Cl)ccc12)c1ccccc1F,-33.5
14,CC(=O)c1ccc(NC(=O)CSc2ccc(-c3ccco3)nn2)cc1,6.41
15,COc1ccc(C2CC(=O)C(C=NCCO)=C(O)C2)cc1 (centres unmarked),8.34
16,O=C(O)CCNC1CCCCC1,14.2
17,CCn1c(=S)[nH]c2cc(Cl)ccc21,13.9
18,O=C(O)CC(Cc1ccc(Cl)cc1)C(=O)Nc1ccc([N+](=O)[O-])cc1 (centres unmarked),11.6
19,Cc1ccccc1C(=O)N1CCN(c2ccc(NC(=O)c3cccs3)cc2)CC1,9.09
20,Cc1cc(N2CCN(c3ccccc3)CC2)nc(N2CCOCC2)n1,-16.6
21,Cc1ccc(-c2cc(-c3ccc(F)cc3)nc(N)c2C#N)o1,7.43
22,CCc1ccc(CN/C=C/C(=O)c2ccc(Br)cc2)cc1,6.84
23,CCCNc1c(NS(=O)(=O)c2ccc(C(C)(C)C)cc2)c(=O)oc2ccccc12,9.75

row,SMILES,"hERG current change (%, negative = inhibition) at 1uM [%]"
1,Cc1cccc(OCC2CCCN(Cc3nc(C4CC4)no3)C2)c1 (centres unmarked),7.74
2,OC(CNCCc1ccc(Cl)cc1)COCc1ccco1 (centres unmarked),-6.41
3,COc1ccc(C(=O)OCC(=O)N2CCCC2=O)c(OC)c1,13
4,COC(=O)c1cc(S(=O)(=O)N2CCCC(C)C2)c[nH]1 (centres unmarked),14.1
5,CS(=O)(=O)N(CC(=O)Nc1ccc(Cl)c(Cl)c1)C1CCCCC1,-13.8
6,COc1ccc(CCNC(=O)CSc2nnc(-c3cccc(F)c3)o2)cc1OC,23.2
7,CCOC(=O)c1cnc(SCC(=O)N2CCC(C(N)=O)CC2)nc1N,13.7
8,Cc1ccnc(NS(=O)(=O)c2cnc(Cl)c(Br)c2)c1,12
9,O=C(CSc1ncn[nH]1)NC1CCCc2ccccc21 (centres unmarked),5.87
10,O=C(Nc1cccnc1)c1ccc(COc2cc(Cl)ccc2Cl)o1,13.7
11,Cc1ccc(N2CC(C(=O)N3CCC(c4nc5ccccc5[nH]4)CC3)CC2=O)cc1C (centres unmarked),4.61
12,COc1cc(Cl)c(C)cc1NC(=O)COC(=O)C(NS(=O)(=O)c1ccc(Cl)cc1)C(C)O (centres unmarked),12.8
13,COc1ccc(-c2cc(C(F)F)n3ncc(C(=O)NCC4CCCO4)c3n2)cc1 (centres unmarked),8.93
14,CNCCOCC(O)CSc1ccccc1 (centres unmarked),11.1
15,CCN1CCN(c2ccc(NC(=O)CCc3c(C)nc4c(-c5ccccc5)c(C)nn4c3C)cc2)CC1,4.52
16,O=c1c2nnn(-c3ccccc3)c2ncn1C/C=C/c1ccccc1,7.51
17,CCC(=O)Nc1c2c(nn1-c1ccc(F)cc1)CS(=O)C2 (centres unmarked),1.88
18,Cc1cc(C(=O)NNC(=S)NC(C)c2ccccc2)cs1 (centres unmarked),0.596
19,CC1(C)CC(=O)C=C(NCCCNC2CCCCC2)C1,13.2
20,COc1ccc(C2=NN(C(=O)CCC(=O)O)C(c3ccc([N+](=O)[O-])cc3)C2)cc1 (centres unmarked),8.77
21,O=C(NCCSc1c[nH]c2ccccc12)c1ccco1,2.21
22,CC(=O)c1c(C)[nH]c(C(=O)Nc2cccc(S(=O)(=O)N3CCCCC3)c2)c1C,8.27
23,O=c1[nH]c(N2CCOCC2)nc2ncn(Cc3ccccc3)c12,7.57

row,SMILES,"hERG current change (%, negative = inhibition) at 1uM [%]"
1,CCOc1ccc(/C=N/NC(=O)c2ccc(CSc3nc4ccccc4[nH]3)cc2)cc1,14.3
2,COc1ccccc1CNC(=O)C1CCN(C(=O)[C@@H]2Cc3ccccc3CN2)CC1,6.3
3,O=C(O)c1cc(S(=O)(=O)N2CCOCC2)ccc1N1CCCCC1,9.26
4,CCOc1ccc(NC(=O)CN2CCN(Cc3c(F)cccc3F)CC2)cc1,-50.7
5,CCOC(=O)c1c(C)[nH]c(C(=O)Cn2nnc(-c3ccc(Cl)cc3)n2)c1C,-0.516
6,Cc1cc(C)cc(NC(=S)N(CCCN2CCN(C)CC2)Cc2cccs2)c1,-19.2
7,COCCn1c(COc2ccc(OC)cc2)nc2ccccc21,1.33
8,C[C@]12CCC3C(CCC4=C/C(=N/OCC(=O)NC(CCC(=O)O)C(=O)O)CC[C@@]43C)C1CCC2O (some centres unmarked),10.5
9,O=C(COC(=O)CNS(=O)(=O)/C=C/c1ccccc1)Nc1cccc2ccccc12,13.9
10,CC(=O)NS(=O)(=O)c1ccc(NC(=S)NC(=O)Cc2ccccc2)cc1,8.83
11,CCCCN(CCCC)CCCNC(=O)C12CN(Cc3ccccc3)CC1C(c1cccc([N+](=O)[O-])c1)=NO2 (centres unmarked),-53.1
12,N#C/C(=C/Nc1ccccc1)c1ccsc1,11
13,O=C(CN1CCc2ccccc2C1)Nc1ccccc1C(F)(F)F.O=C(O)C(=O)O,9.96
14,O=C(Nc1cc(=O)[nH]c2ncnn12)c1ccccc1Cl,5.08
15,CCOc1ccccc1N(C(=O)c1ccco1)C(C(=O)NC1CCCC1)c1cccnc1 (centres unmarked),13
16,CC(C)C(=O)Nc1nnc(S(=O)(=O)N2c3ccccc3CC2C)s1 (centres unmarked),14.7
17,CNC(=O)Nc1cccc(NC(=O)NC)n1,0.557
18,Cc1cc(NC(=O)CC#N)n(-c2ccccc2)n1,7.17
19,Cc1ccccc1-c1nn(-c2ccccc2)cc1C(=O)NCC(c1ccco1)N1CCCC1 (centres unmarked),14.2
20,COc1ccccc1NC(=O)CN1CCN(CC(=O)Nc2ccc(OCc3ccccc3)cc2)CC1,-2.39
